Assay [1] has as its target endogenous PPARγ of differentiated 3T3-L1 cells (mouse (endogenous in 3T3-L1)) (UniProt P37238). Nature of the assay: co-IP; endogenous proteins of 3T3-L1 cells treated with DMI cocktail during 6 days and with MG132 for 6 h before harvest; immunoprecipitated with polyclonal PPARγ antibody.
For assay [2], the target named is HA-CHIP K30A, from pcDNA3-HA-CHIP K30A (UniProt Q9UNE7). Description: co-IP; lysates of HEK 293T cells transfected with HA-CHIP variants and FLAG-PPARγ, immunoprecipitated with α-HA antibodies.
Assay [3] deals with HA-CHIP H260Q, from pcDNA3-HA-CHIP H260Q (UniProt Q9UNE7). The assay is described as above.
For assay [4], the target named is T1, MYC-CHIP, from pcDNA3-MYC-CHIP, Q9UNE7.
T1 chain: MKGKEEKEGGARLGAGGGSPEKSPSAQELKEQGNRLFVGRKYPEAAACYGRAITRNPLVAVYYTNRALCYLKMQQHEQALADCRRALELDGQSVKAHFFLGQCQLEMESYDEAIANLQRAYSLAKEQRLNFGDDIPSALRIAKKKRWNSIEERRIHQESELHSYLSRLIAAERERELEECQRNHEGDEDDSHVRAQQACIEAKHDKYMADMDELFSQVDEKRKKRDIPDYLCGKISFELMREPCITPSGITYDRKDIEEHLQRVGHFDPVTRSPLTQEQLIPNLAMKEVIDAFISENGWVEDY
Description: co-IP; lysates of HEK 293T cells transfected with deletion mutants of PPARγ2 or CHIP, immunoprecipitated with α-Myc and α-FLAG antibodies. To be noted: remark: other sources report otherwise.

Sequences of proteins named here, by UniProt entry; tags and fusion partners are left off.
UniProt P37238: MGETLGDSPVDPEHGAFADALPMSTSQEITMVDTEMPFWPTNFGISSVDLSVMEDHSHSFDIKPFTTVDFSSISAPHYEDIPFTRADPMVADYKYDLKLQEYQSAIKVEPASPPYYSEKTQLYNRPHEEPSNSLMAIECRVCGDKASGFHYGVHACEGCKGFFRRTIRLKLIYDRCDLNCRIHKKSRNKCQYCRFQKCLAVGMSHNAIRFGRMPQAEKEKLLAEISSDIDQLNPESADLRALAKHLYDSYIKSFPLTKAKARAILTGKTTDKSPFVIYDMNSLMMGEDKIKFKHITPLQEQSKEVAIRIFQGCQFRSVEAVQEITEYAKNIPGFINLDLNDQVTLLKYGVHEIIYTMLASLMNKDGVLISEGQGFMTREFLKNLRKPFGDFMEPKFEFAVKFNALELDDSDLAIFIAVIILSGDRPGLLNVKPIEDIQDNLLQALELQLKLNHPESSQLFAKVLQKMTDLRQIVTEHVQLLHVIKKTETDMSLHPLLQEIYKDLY
UniProt Q9WUD1: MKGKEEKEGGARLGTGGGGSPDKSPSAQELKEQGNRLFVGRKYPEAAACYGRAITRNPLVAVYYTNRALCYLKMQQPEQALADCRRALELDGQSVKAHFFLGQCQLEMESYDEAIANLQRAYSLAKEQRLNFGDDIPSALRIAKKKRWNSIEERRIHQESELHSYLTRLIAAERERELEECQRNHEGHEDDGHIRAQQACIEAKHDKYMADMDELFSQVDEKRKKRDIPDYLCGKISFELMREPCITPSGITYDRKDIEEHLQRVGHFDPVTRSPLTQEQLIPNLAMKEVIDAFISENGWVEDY

Assay [5] concerns the target T2, HA-CHIP, from pcDNA3-HA-CHIP, Q9UNE7.
T2 chain: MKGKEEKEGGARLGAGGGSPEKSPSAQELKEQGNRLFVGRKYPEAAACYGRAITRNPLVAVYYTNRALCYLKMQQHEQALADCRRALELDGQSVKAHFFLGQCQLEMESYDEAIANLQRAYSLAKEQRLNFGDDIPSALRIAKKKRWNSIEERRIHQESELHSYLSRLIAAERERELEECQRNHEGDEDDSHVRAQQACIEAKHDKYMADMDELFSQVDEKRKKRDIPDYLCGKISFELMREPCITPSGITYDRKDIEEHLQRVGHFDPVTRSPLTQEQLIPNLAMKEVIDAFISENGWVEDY
Nature of the assay: co-IP; lysates of HEK 293T cells transfected with HA-CHIP variants and FLAG-PPARγ, immunoprecipitated with α-HA antibodies. To be noted: remark: other sources report otherwise.

In assay [6] the target is T3, recombinant GST-CHIP, from pGEX-4T1-CHIP, Q9UNE7.
T3 chain: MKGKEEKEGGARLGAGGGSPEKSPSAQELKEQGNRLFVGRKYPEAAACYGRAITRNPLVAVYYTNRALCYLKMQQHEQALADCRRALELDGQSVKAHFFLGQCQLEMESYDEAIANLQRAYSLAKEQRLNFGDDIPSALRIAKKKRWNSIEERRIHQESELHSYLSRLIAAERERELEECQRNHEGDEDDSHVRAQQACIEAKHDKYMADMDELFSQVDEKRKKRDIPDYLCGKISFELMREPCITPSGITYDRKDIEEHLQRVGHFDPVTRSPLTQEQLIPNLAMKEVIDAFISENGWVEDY
Description: pull-down; GST pull-down: in vitro translated PPARγ2 incubated with GST or GST fusion protein for two hours, then with sepharose beads for one hour; washed, eluted with 10 mM reduced glutathione; western blot with GST and PPARγ antibodies; only the target purified. The settings on record: remark: other sources report otherwise.

Assay [7] deals with T4, FLAG-CHIP (C-terminus of HSC70-interacting protein), from pcDNA3-FLAG-CHIP, Q9UNE7.
T4 chain: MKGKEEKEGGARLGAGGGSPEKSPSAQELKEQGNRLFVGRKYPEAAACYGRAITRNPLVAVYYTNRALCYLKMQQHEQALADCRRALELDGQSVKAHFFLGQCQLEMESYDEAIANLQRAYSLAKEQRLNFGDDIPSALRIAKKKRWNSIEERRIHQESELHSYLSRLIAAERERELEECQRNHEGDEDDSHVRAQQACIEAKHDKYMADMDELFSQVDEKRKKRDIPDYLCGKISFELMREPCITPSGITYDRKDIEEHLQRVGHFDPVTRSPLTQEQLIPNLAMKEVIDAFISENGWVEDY
Description: co-IP; lysates of HEK293T cells transfected with FLAG-CHIP and HA-PPARγ, immunoprecipitated with α-HA and FLAG antibodies; in panel b cells treated with 10 μM MG132 for 6 hour before harvest. The settings on record: remark: other sources report otherwise.

Assay [8] deals with T5, HA-PPARγ2 (peroxisome proliferator-activated receptor γ, isoform 2), P37231.
T5 chain: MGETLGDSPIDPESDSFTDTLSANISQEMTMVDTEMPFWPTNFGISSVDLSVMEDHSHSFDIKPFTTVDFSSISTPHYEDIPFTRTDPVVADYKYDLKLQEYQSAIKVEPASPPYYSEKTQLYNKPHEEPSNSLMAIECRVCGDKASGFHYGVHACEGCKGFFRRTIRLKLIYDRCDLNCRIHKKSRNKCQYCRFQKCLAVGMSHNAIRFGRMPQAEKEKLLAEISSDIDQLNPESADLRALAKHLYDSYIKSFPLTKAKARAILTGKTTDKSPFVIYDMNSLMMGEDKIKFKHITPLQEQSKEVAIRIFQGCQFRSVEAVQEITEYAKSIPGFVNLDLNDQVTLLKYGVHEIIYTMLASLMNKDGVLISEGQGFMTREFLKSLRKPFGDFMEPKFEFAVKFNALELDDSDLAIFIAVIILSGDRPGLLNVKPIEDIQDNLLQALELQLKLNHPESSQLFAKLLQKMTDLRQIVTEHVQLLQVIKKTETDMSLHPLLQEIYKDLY
The description is as above. To be noted: remark: other sources report otherwise.

In assay [9] the target is T6, PPARγ2 from pcDNA3.1-PPARγ2, expressed in HEK 293T cells, P37231.
T6 chain: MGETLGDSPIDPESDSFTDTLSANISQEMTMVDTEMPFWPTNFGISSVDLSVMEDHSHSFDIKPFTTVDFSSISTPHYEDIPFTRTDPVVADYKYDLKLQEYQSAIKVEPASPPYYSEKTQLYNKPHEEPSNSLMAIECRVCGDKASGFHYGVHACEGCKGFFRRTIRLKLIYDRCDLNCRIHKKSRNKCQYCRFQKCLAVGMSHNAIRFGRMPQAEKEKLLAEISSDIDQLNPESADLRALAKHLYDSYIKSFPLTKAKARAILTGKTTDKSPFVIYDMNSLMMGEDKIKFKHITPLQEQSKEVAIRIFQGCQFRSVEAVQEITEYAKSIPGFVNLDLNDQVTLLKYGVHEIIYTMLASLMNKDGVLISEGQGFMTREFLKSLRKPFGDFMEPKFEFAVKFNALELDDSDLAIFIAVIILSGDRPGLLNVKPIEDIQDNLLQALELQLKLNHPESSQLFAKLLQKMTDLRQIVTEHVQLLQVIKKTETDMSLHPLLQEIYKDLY
Nature of the assay: co-IP; HEK 293T cells transfected with pcDNA3-FLAG-CHIP, pcDNA3.1-PPARγ2 and pcDNA3-HA-HSP70, MG132 for 6 hour; lysates immunoprecipitated with α-PPARγ antibodies. The settings on record: remark: other sources report otherwise.

The target of assay [10] is T7, endogenous PPARγ of PC-3 cells (human (endogenous in PC-3)), P37231.
T7 chain: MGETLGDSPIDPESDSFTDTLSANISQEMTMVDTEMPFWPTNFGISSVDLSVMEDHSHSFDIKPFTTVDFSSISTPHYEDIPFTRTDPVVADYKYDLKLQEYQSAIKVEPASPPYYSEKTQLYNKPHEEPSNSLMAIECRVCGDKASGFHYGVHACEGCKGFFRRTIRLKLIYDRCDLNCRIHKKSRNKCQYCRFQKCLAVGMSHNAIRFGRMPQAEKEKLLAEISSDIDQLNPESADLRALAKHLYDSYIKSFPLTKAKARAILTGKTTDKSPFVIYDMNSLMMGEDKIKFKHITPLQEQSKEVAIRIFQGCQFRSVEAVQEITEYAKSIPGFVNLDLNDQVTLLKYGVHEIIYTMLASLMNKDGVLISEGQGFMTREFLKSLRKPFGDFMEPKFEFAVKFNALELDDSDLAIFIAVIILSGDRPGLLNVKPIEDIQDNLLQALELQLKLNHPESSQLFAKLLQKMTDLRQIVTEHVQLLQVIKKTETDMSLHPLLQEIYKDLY
Nature of the assay: co-IP; endogenous proteins of PC-3 cells; immunoprecipitated with α-IgG and α-PPARγ, western blot with polyclonal CHIP and monoclonal PPARγ antibodies. The settings on record: remark: other sources report otherwise.

These are yes or no findings as the source states them, for the method shown. In cells and extracts the contact can be indirect. Some entries that bind do so weakly or less than the wild type. For some of these results: Tags and fused reporters may be left off the sequences shown.

“endogenous CHIP of differentiated 3T3-L1 cells (from UniProt Q9WUD1 1-304) (enzyme)”: the binding entry in assay [1] is given as “binds”.
For the molecule “FLAG-PPARγ2, from pCS4-3xFLAG-PPARγ2 (from UniProt P37231-1 1-505) (receptor)”, the binding result is recorded as “no binding” in assay [2] and “binds” in assay [3].

B1: FLAG-PPARγ2, from pCS4-3xFLAG-PPARγ2, P37231-1 1-505 (receptor)
chain: MGETLGDSPIDPESDSFTDTLSANISQEMTMVDTEMPFWPTNFGISSVDLSVMEDHSHSFDIKPFTTVDFSSISTPHYEDIPFTRTDPVVADYKYDLKLQEYQSAIKVEPASPPYYSEKTQLYNKPHEEPSNSLMAIECRVCGDKASGFHYGVHACEGCKGFFRRTIRLKLIYDRCDLNCRIHKKSRNKCQYCRFQKCLAVGMSHNAIRFGRMPQAEKEKLLAEISSDIDQLNPESADLRALAKHLYDSYIKSFPLTKAKARAILTGKTTDKSPFVIYDMNSLMMGEDKIKFKHITPLQEQSKEVAIRIFQGCQFRSVEAVQEITEYAKSIPGFVNLDLNDQVTLLKYGVHEIIYTMLASLMNKDGVLISEGQGFMTREFLKSLRKPFGDFMEPKFEFAVKFNALELDDSDLAIFIAVIILSGDRPGLLNVKPIEDIQDNLLQALELQLKLNHPESSQLFAKLLQKMTDLRQIVTEHVQLLQVIKKTETDMSLHPLLQEIYKDLY
B1: the binding entry in assay [4] and in assay [5] was “binds” in each case.

B2: PPARγ2 transcribed and translated in reticulocyte lysate, P37231-1 1-505 (receptor)
chain: MGETLGDSPIDPESDSFTDTLSANISQEMTMVDTEMPFWPTNFGISSVDLSVMEDHSHSFDIKPFTTVDFSSISTPHYEDIPFTRTDPVVADYKYDLKLQEYQSAIKVEPASPPYYSEKTQLYNKPHEEPSNSLMAIECRVCGDKASGFHYGVHACEGCKGFFRRTIRLKLIYDRCDLNCRIHKKSRNKCQYCRFQKCLAVGMSHNAIRFGRMPQAEKEKLLAEISSDIDQLNPESADLRALAKHLYDSYIKSFPLTKAKARAILTGKTTDKSPFVIYDMNSLMMGEDKIKFKHITPLQEQSKEVAIRIFQGCQFRSVEAVQEITEYAKSIPGFVNLDLNDQVTLLKYGVHEIIYTMLASLMNKDGVLISEGQGFMTREFLKSLRKPFGDFMEPKFEFAVKFNALELDDSDLAIFIAVIILSGDRPGLLNVKPIEDIQDNLLQALELQLKLNHPESSQLFAKLLQKMTDLRQIVTEHVQLLQVIKKTETDMSLHPLLQEIYKDLY
As for B2, in assay [6], the binding result was “binds”.

B3: HA-PPARγ2 (peroxisome proliferator-activated receptor γ, isoform 2), P37231-1 1-505 (receptor)
chain: MGETLGDSPIDPESDSFTDTLSANISQEMTMVDTEMPFWPTNFGISSVDLSVMEDHSHSFDIKPFTTVDFSSISTPHYEDIPFTRTDPVVADYKYDLKLQEYQSAIKVEPASPPYYSEKTQLYNKPHEEPSNSLMAIECRVCGDKASGFHYGVHACEGCKGFFRRTIRLKLIYDRCDLNCRIHKKSRNKCQYCRFQKCLAVGMSHNAIRFGRMPQAEKEKLLAEISSDIDQLNPESADLRALAKHLYDSYIKSFPLTKAKARAILTGKTTDKSPFVIYDMNSLMMGEDKIKFKHITPLQEQSKEVAIRIFQGCQFRSVEAVQEITEYAKSIPGFVNLDLNDQVTLLKYGVHEIIYTMLASLMNKDGVLISEGQGFMTREFLKSLRKPFGDFMEPKFEFAVKFNALELDDSDLAIFIAVIILSGDRPGLLNVKPIEDIQDNLLQALELQLKLNHPESSQLFAKLLQKMTDLRQIVTEHVQLLQVIKKTETDMSLHPLLQEIYKDLY
Turning to B3, the binding result in assay [7] was “binds”.

B4: FLAG-CHIP (C-terminus of HSC70-interacting protein), from pcDNA3-FLAG-CHIP, Q9UNE7 1-303 (enzyme)
chain: MKGKEEKEGGARLGAGGGSPEKSPSAQELKEQGNRLFVGRKYPEAAACYGRAITRNPLVAVYYTNRALCYLKMQQHEQALADCRRALELDGQSVKAHFFLGQCQLEMESYDEAIANLQRAYSLAKEQRLNFGDDIPSALRIAKKKRWNSIEERRIHQESELHSYLSRLIAAERERELEECQRNHEGDEDDSHVRAQQACIEAKHDKYMADMDELFSQVDEKRKKRDIPDYLCGKISFELMREPCITPSGITYDRKDIEEHLQRVGHFDPVTRSPLTQEQLIPNLAMKEVIDAFISENGWVEDY
With B4, the binding entry in assay [8] and in assay [9] was “binds” throughout.

B5: endogenous CHIP of PC-3 cells, Q9UNE7 1-303 (enzyme)
chain: MKGKEEKEGGARLGAGGGSPEKSPSAQELKEQGNRLFVGRKYPEAAACYGRAITRNPLVAVYYTNRALCYLKMQQHEQALADCRRALELDGQSVKAHFFLGQCQLEMESYDEAIANLQRAYSLAKEQRLNFGDDIPSALRIAKKKRWNSIEERRIHQESELHSYLSRLIAAERERELEECQRNHEGDEDDSHVRAQQACIEAKHDKYMADMDELFSQVDEKRKKRDIPDYLCGKISFELMREPCITPSGITYDRKDIEEHLQRVGHFDPVTRSPLTQEQLIPNLAMKEVIDAFISENGWVEDY
Take B5: in [10], the binding result is recorded as “binds”.
